# Laboratory results: the supplement of paper PMC10037445
# The full ranking holds about 2,900 compounds; the median of “NF-kB SEAP reporter activity, fold change vs agonist alone” is about 0.99, and the highest 2% start at about 2.6. The list shows a part of the results.
# Experiments:
# RAW-Dual [1] = test: NF-kB SEAP reporter activity, fold change vs agonist alone; cytotoxicity flag (confluency mask): not cytotoxic; higher = enhanced NF-kB activity
# Summary of the method: (§1)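 RAW-Dual macrophages were seeded in DMEM at 50,000 cells/well in 384-well plates, given 50 nL of library stock by pin tool, and given a PRR agonist 1 h later. Plates were held at 37 °C, 5% CO2 for 20 hours, after which supernatant was read for IRF by QuantiLuc luminescence and for NF-κB by QuantiBlue absorbance at 620 nm. Reporter activity is expressed as fold change over wells that received agonist alone. A well was called cytotoxic when IncuCyte confluency fell below 70% of agonist controls in both mask sets.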
# RAW-Dual [2] = test: NF-kB SEAP reporter activity, fold change vs agonist alone; higher = enhanced NF-kB activity; details: library stock concentration (final ~1000-fold dilution): 10 mM, cytotoxicity flag (confluency mask): not cytotoxic
# Summary of the method: as §1
# RAW-Dual [3] = test: NF-kB SEAP reporter activity, fold change vs agonist alone; cytotoxicity flag (confluency mask): cytotoxic (confluency <70% of control); higher = enhanced NF-kB activity; details: agonist: LPS (TLR4) 0.1 ug/mL
# Summary of the method: as §1
# [4] = agonist: ODN 1826 (TLR9) 0.5 ug/mL
# [5] = agonist: Pam2CSK4 (TLR2/6) 0.1 ug/mL
# [6] = agonist: Pam3CSK4 (TLR2/1) 0.1 ug/mL
smiles,measurement,setting,value
CCOC(=O)CCNc1cc(N2CCc3ccccc3CC2)nc(-c2ccccn2)n1.Cl (library stock concentration (final ~1000-fold dilution): 10 mM),NF-kB SEAP reporter activity,RAW-Dual [1]; agonist: LPS (TLR4) 0.1 ug/mL,1.02
same,NF-kB SEAP reporter activity,RAW-Dual [1]; [4],0.883
same,NF-kB SEAP reporter activity,RAW-Dual [1]; [5],0.943
same,NF-kB SEAP reporter activity,RAW-Dual [1]; [6],0.66
CCOC(=O)CCNc1cc(N2CCc3ccccc3CC2)nc(-c2ccccn2)n1.Cl,NF-kB SEAP reporter activity,RAW-Dual [2]; agonist: Imiquimod (TLR7) […],0.922
same,NF-kB SEAP reporter activity,RAW-Dual [2]; agonist: MPLA (TLR4) […],0.949
COC(=O)c1c2c(c3ccccc3c1O)OC(C)(C)C=C2,NF-kB SEAP reporter activity,RAW-Dual [2]; agonist: Imiquimod (TLR7) […],0.736
same,NF-kB SEAP reporter activity,RAW-Dual [2]; agonist: MPLA (TLR4) […],1.01
COC(=O)c1c2c(c3ccccc3c1O)OC(C)(C)C=C2 (library stock concentration (final ~1000-fold dilution): 10 mM),NF-kB SEAP reporter activity,RAW-Dual [1]; agonist: LPS (TLR4) 0.1 ug/mL,1.05
same,NF-kB SEAP reporter activity,RAW-Dual [1]; [4],0.712
same,NF-kB SEAP reporter activity,RAW-Dual [1]; [5],0.77
same,NF-kB SEAP reporter activity,RAW-Dual [1]; [6],0.94
CCCCN1CCCCC1C(=O)Nc1c(C)cccc1C.Cl (configuration not stated) (library stock concentration (final ~1000-fold dilution): 10 mM),NF-kB SEAP reporter activity,RAW-Dual [1]; agonist: LPS (TLR4) 0.1 ug/mL,1.36
same,NF-kB SEAP reporter activity,RAW-Dual [1]; [4],0.951
same,NF-kB SEAP reporter activity,RAW-Dual [1]; [5],0.981
same,NF-kB SEAP reporter activity,RAW-Dual [1]; [6],1.04
CCCCN1CCCCC1C(=O)Nc1c(C)cccc1C.Cl (configuration not stated),NF-kB SEAP reporter activity,RAW-Dual [2]; agonist: Imiquimod (TLR7) […],0.94
same,NF-kB SEAP reporter activity,RAW-Dual [2]; agonist: MPLA (TLR4) […],1.06
COc1ccc(/C=C/C(=O)C2(C(=O)/C=C/c3ccc(OC)c(OC)c3)CCCCC2)cc1OC (library stock concentration (final ~1000-fold dilution): 10 mM),NF-kB SEAP reporter activity,RAW-Dual [1]; agonist: LPS (TLR4) 0.1 ug/mL,0.367
same,NF-kB SEAP reporter activity,RAW-Dual [1]; [4],1.21
same,NF-kB SEAP reporter activity,RAW-Dual [1]; [5],0.228
same,NF-kB SEAP reporter activity,RAW-Dual [1]; [6],0.208
COc1ccc(/C=C/C(=O)C2(C(=O)/C=C/c3ccc(OC)c(OC)c3)CCCCC2)cc1OC,NF-kB SEAP reporter activity,RAW-Dual [2]; agonist: Imiquimod (TLR7) […],0.45
same,NF-kB SEAP reporter activity,RAW-Dual [2]; agonist: MPLA (TLR4) […],0.581
Cn1c(=O)c2c(ncn2CC(O)CO)n(C)c1=O (configuration not stated) (library stock concentration (final ~1000-fold dilution): 10 mM),NF-kB SEAP reporter activity,RAW-Dual [1]; agonist: LPS (TLR4) 0.1 ug/mL,1.2
same,NF-kB SEAP reporter activity,RAW-Dual [1]; [4],1.15
same,NF-kB SEAP reporter activity,RAW-Dual [1]; [5],1.03
same,NF-kB SEAP reporter activity,RAW-Dual [1]; [6],1.12
Cn1c(=O)c2c(ncn2CC(O)CO)n(C)c1=O (configuration not stated),NF-kB SEAP reporter activity,RAW-Dual [2]; agonist: Imiquimod (TLR7) […],0.966
same,NF-kB SEAP reporter activity,RAW-Dual [2]; agonist: MPLA (TLR4) […],1.02
Nc1nccs1,NF-kB SEAP reporter activity,RAW-Dual [2]; agonist: Imiquimod (TLR7) […],0.921
same,NF-kB SEAP reporter activity,RAW-Dual [2]; agonist: MPLA (TLR4) […],1.08
Nc1nccs1 (library stock concentration (final ~1000-fold dilution): 10 mM),NF-kB SEAP reporter activity,RAW-Dual [1]; agonist: LPS (TLR4) 0.1 ug/mL,1.18
same,NF-kB SEAP reporter activity,RAW-Dual [1]; [4],0.997
same,NF-kB SEAP reporter activity,RAW-Dual [1]; [5],1.16
same,NF-kB SEAP reporter activity,RAW-Dual [1]; [6],1.1
O=S(=O)(NC1CCNCC1)c1cc(S(=O)(=O)c2ccccc2)ccc1C(F)(F)F (library stock concentration (final ~1000-fold dilution): 10 mM),NF-kB SEAP reporter activity,RAW-Dual [1]; agonist: LPS (TLR4) 0.1 ug/mL,0.949
same,NF-kB SEAP reporter activity,RAW-Dual [1]; [4],0.764
same,NF-kB SEAP reporter activity,RAW-Dual [1]; [5],0.923
same,NF-kB SEAP reporter activity,RAW-Dual [1]; [6],0.978
O=S(=O)(NC1CCNCC1)c1cc(S(=O)(=O)c2ccccc2)ccc1C(F)(F)F,NF-kB SEAP reporter activity,RAW-Dual [2]; agonist: Imiquimod (TLR7) […],0.912
same,NF-kB SEAP reporter activity,RAW-Dual [2]; agonist: MPLA (TLR4) […],1.07
NC(=O)c1cccnc1,NF-kB SEAP reporter activity,RAW-Dual [2]; agonist: Imiquimod (TLR7) […],0.934
same,NF-kB SEAP reporter activity,RAW-Dual [2]; agonist: MPLA (TLR4) […],1.02
NC(=O)c1cccnc1 (library stock concentration (final ~1000-fold dilution): 10 mM),NF-kB SEAP reporter activity,RAW-Dual [1]; agonist: LPS (TLR4) 0.1 ug/mL,1
same,NF-kB SEAP reporter activity,RAW-Dual [1]; [4],1.03
same,NF-kB SEAP reporter activity,RAW-Dual [1]; [5],1.03
same,NF-kB SEAP reporter activity,RAW-Dual [1]; [6],1.08
O=C(/C=C/c1ccccc1)NC(NC(=S)Nc1ccc(Cl)cc1)C(Cl)(Cl)Cl (configuration not stated) (library stock concentration (final ~1000-fold dilution): 10 mM),NF-kB SEAP reporter activity,RAW-Dual [3],2.64
CN(C)CCC(CSc1ccccc1)Nc1ccc(S(=O)(=O)NC(=O)c2ccc(N3CCN(Cc4ccccc4-c4ccc(Cl)cc4)CC3)cc2)cc1[N+](=O)[O-] (configuration not stated) (library stock concentration (final ~1000-fold dilution): 10 mM),NF-kB SEAP reporter activity,RAW-Dual [1]; agonist: LPS (TLR4) 0.1 ug/mL,0.429
same,NF-kB SEAP reporter activity,RAW-Dual [1]; [4],0.272
same,NF-kB SEAP reporter activity,RAW-Dual [1]; [5],0.164
same,NF-kB SEAP reporter activity,RAW-Dual [1]; [6],0.223
CN(C)CCC(CSc1ccccc1)Nc1ccc(S(=O)(=O)NC(=O)c2ccc(N3CCN(Cc4ccccc4-c4ccc(Cl)cc4)CC3)cc2)cc1[N+](=O)[O-] (configuration not stated),NF-kB SEAP reporter activity,RAW-Dual [2]; agonist: Imiquimod (TLR7) […],0.28
same,NF-kB SEAP reporter activity,RAW-Dual [2]; agonist: MPLA (TLR4) […],0.466
Cc1c(Cn2c(C)nc3c(C(=O)O)cc(N4CCOCC4)cc32)cccc1C(F)(F)F,NF-kB SEAP reporter activity,RAW-Dual [2]; agonist: Imiquimod (TLR7) […],0.84
same,NF-kB SEAP reporter activity,RAW-Dual [2]; agonist: MPLA (TLR4) […],0.998
Cc1c(Cn2c(C)nc3c(C(=O)O)cc(N4CCOCC4)cc32)cccc1C(F)(F)F (library stock concentration (final ~1000-fold dilution): 10 mM),NF-kB SEAP reporter activity,RAW-Dual [1]; agonist: LPS (TLR4) 0.1 ug/mL,1.06
same,NF-kB SEAP reporter activity,RAW-Dual [1]; [4],0.919
same,NF-kB SEAP reporter activity,RAW-Dual [1]; [5],0.899
same,NF-kB SEAP reporter activity,RAW-Dual [1]; [6],0.83
CS(=O)c1ccc(-c2nc(-c3ccc(F)cc3)c(-c3ccncc3)[nH]2)cc1 (configuration not stated) (library stock concentration (final ~1000-fold dilution): 10 mM),NF-kB SEAP reporter activity,RAW-Dual [1]; agonist: LPS (TLR4) 0.1 ug/mL,2.27
same,NF-kB SEAP reporter activity,RAW-Dual [1]; [4],0.762
same,NF-kB SEAP reporter activity,RAW-Dual [1]; [5],0.716
same,NF-kB SEAP reporter activity,RAW-Dual [1]; [6],1.02
CS(=O)c1ccc(-c2nc(-c3ccc(F)cc3)c(-c3ccncc3)[nH]2)cc1 (configuration not stated),NF-kB SEAP reporter activity,RAW-Dual [2]; agonist: Imiquimod (TLR7) […],1.52
same,NF-kB SEAP reporter activity,RAW-Dual [2]; agonist: MPLA (TLR4) […],1.61
O=C(NCc1ccc(Oc2ccccc2)cc1)c1nc(-c2cc(Br)c(O)c(Br)c2)no1,NF-kB SEAP reporter activity,RAW-Dual [2]; agonist: Imiquimod (TLR7) […],1.2
same,NF-kB SEAP reporter activity,RAW-Dual [2]; agonist: MPLA (TLR4) […],1.51
O=C(NCc1ccc(Oc2ccccc2)cc1)c1nc(-c2cc(Br)c(O)c(Br)c2)no1 (library stock concentration (final ~1000-fold dilution): 10 mM),NF-kB SEAP reporter activity,RAW-Dual [1]; agonist: LPS (TLR4) 0.1 ug/mL,1.43
same,NF-kB SEAP reporter activity,RAW-Dual [1]; [4],0.834
same,NF-kB SEAP reporter activity,RAW-Dual [1]; [5],0.684
same,NF-kB SEAP reporter activity,RAW-Dual [1]; [6],1.29
Cc1cc(N2CC(C)NC(C)C2)ncc1-c1ccc(-c2nc3c(ccn3C)c(=O)[nH]2)cc1 (configuration not stated),NF-kB SEAP reporter activity,RAW-Dual [2]; agonist: Imiquimod (TLR7) […],1.14
same,NF-kB SEAP reporter activity,RAW-Dual [2]; agonist: MPLA (TLR4) […],2.01
Cc1cc(N2CC(C)NC(C)C2)ncc1-c1ccc(-c2nc3c(ccn3C)c(=O)[nH]2)cc1 (configuration not stated) (library stock concentration (final ~1000-fold dilution): 10 mM),NF-kB SEAP reporter activity,RAW-Dual [1]; agonist: LPS (TLR4) 0.1 ug/mL,2.18
same,NF-kB SEAP reporter activity,RAW-Dual [1]; [4],0.278
same,NF-kB SEAP reporter activity,RAW-Dual [1]; [5],1.38
same,NF-kB SEAP reporter activity,RAW-Dual [1]; [6],1.63
NC(=O)CCCSc1nc(N)nc(-c2c(Cl)cc3c4c(cccc24)COC3)n1 (library stock concentration (final ~1000-fold dilution): 10 mM),NF-kB SEAP reporter activity,RAW-Dual [1]; agonist: LPS (TLR4) 0.1 ug/mL,0.263
same,NF-kB SEAP reporter activity,RAW-Dual [1]; [4],0.199
same,NF-kB SEAP reporter activity,RAW-Dual [1]; [5],0.076
same,NF-kB SEAP reporter activity,RAW-Dual [1]; [6],0.147
NC(=O)CCCSc1nc(N)nc(-c2c(Cl)cc3c4c(cccc24)COC3)n1,NF-kB SEAP reporter activity,RAW-Dual [2]; agonist: Imiquimod (TLR7) […],0.163
same,NF-kB SEAP reporter activity,RAW-Dual [2]; agonist: MPLA (TLR4) […],0.388
COC(=O)NC(C(=O)N1CC2(CC2)CC1c1ncc(-c2ccc3c(c2)C(F)(F)c2cc(-c4ccc5nc(C6C7CCC(C7)N6C(=O)C(NC(=O)OC)C(C)C)[nH]c5c4)ccc2-3)[nH]1)C(C)C (configuration not stated) (library stock concentration (final ~1000-fold dilution): 10 mM),NF-kB SEAP reporter activity,RAW-Dual [1]; agonist: LPS (TLR4) 0.1 ug/mL,1.08
same,NF-kB SEAP reporter activity,RAW-Dual [1]; [4],1.06
same,NF-kB SEAP reporter activity,RAW-Dual [1]; [5],0.522
same,NF-kB SEAP reporter activity,RAW-Dual [1]; [6],0.529
COC(=O)NC(C(=O)N1CC2(CC2)CC1c1ncc(-c2ccc3c(c2)C(F)(F)c2cc(-c4ccc5nc(C6C7CCC(C7)N6C(=O)C(NC(=O)OC)C(C)C)[nH]c5c4)ccc2-3)[nH]1)C(C)C (configuration not stated),NF-kB SEAP reporter activity,RAW-Dual [2]; agonist: Imiquimod (TLR7) […],0.878
same,NF-kB SEAP reporter activity,RAW-Dual [2]; agonist: MPLA (TLR4) […],0.977
CN(C)CC(=O)Nc1ccc2[nH]c(=O)c3ccccc3c2c1.Cl (library stock concentration (final ~1000-fold dilution): 10 mM),NF-kB SEAP reporter activity,RAW-Dual [1]; agonist: LPS (TLR4) 0.1 ug/mL,1.02
same,NF-kB SEAP reporter activity,RAW-Dual [1]; [4],0.808
same,NF-kB SEAP reporter activity,RAW-Dual [1]; [5],1.04
same,NF-kB SEAP reporter activity,RAW-Dual [1]; [6],1.37
CN(C)CC(=O)Nc1ccc2[nH]c(=O)c3ccccc3c2c1.Cl,NF-kB SEAP reporter activity,RAW-Dual [2]; agonist: Imiquimod (TLR7) […],1.02
same,NF-kB SEAP reporter activity,RAW-Dual [2]; agonist: MPLA (TLR4) […],0.949
